For 28 cell lines, AUC and IC50 results are on record in the supplement of paper PMC4967469.

pIC50: −log10 of the molar value. IC50 is the fitted dose that halves viability relative to control wells, and lower means more sensitive; a fit beyond the top or the lowest dose is shown as a bound at that dose. AUC sums up the same curve from the lowest dose to the 256-fold higher top dose; the more sensitive the line, the further below 1. An entry number marks a drug with two screens in the source, which often give different values.

Compound in the assay: CS(=O)(=O)N1CCN(Cc2cc3nc(-c4cccc5[nH]ncc45)nc(N4CCOCC4)c3s2)CC1 [GDC0941]
Kind of assay: Viability of human cancer cell lines after 72 h of drug (GDSC screen). The following applies: screen: GDSC drug entry 1058. Here is the method: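 Human cancer cell lines in 384-well plates, medium with 10% serum, drug for 72 h over a 256-fold dose range (nine 2-fold or five 4-fold steps up to the top dose). Adherent lines were fixed and stained with the nucleic acid dye Syto60, suspension lines read with resazurin; signal relative to control wells, capped at 0 and 100%. One two-parameter sigmoid per drug and line, fitted in a mixed model over all curves with the slope shared within a line.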
As to “SK-MG-1 (glioma, adherent, top dose 4 µM)”, the AUC was found to be 0.534 and the pIC50 (in general, the IC50 on a negative log10 scale, so that one unit is a factor of ten) is 6.51.

For the cell line “SK-MM-2 (myeloma, suspension, top dose 4 µM)”, the AUC is 0.805 and the pIC50 is 5.67.

As for “SK-N-AS (neuroblastoma, adherent, top dose 4 µM)”, the AUC is 0.919 and the pIC50 is under 5.40.

With “SK-N-FI (neuroblastoma, adherent, top dose 4 µM)”, the AUC amounted to 0.823 and the pIC50 is 5.63.

Regarding “SK-N-SH (neuroblastoma, adherent, top dose 4 µM)”, the AUC was 0.834 and the pIC50 was 5.59.

Take “SK-PN-DW (Ewing sarcoma, adherent, top dose 4 µM)”: the AUC is 0.77 and the pIC50 is 5.80.

For “SKG-IIIa (cervix, adherent, top dose 4 µM)”, the AUC was 0.78 and the pIC50 is 5.65.

With “SKM-1 (haematopoietic neoplasm, suspension, top dose 4 µM)”, the AUC was 0.445 and the pIC50 is 6.76.

In the case of SKN (uterus, adherent, top dose 4 µM), the AUC came out at 0.658 and the pIC50 is 6.12.

With “SKN-3 (head and neck, adherent, top dose 4 µM)”, the AUC is 0.798 and the pIC50 was 5.64.

Regarding “SLVL (B-cell lymphoma, suspension, top dose 4 µM)”, the AUC was 0.875 and the pIC50 was under 5.40.

For the cell line SNB75 (glioma, adherent, top dose 4 µM), the AUC is 0.768 and the pIC50 is 5.65.

Consider “SNG-M (endometrium, adherent, top dose 4 µM)”, for which the AUC amounted to 0.843 and the pIC50 is 5.56.

As for “SNU-61 (large intestine, adherent, top dose 4 µM)”, the AUC worked out at 0.937 and the pIC50 is under 5.40.

For the cell line “SNU-81 (large intestine, adherent, top dose 4 µM)”, the AUC was determined as 0.679 and the pIC50 was 6.03.

Take “SNU-182 (liver, adherent, top dose 4 µM)”: the AUC was determined as 0.789 and the pIC50 is 5.73.

As for “SNU-387 (liver, adherent, top dose 4 µM)”, the AUC was determined as 0.682 and the pIC50 was 6.06.

“SNU-407 (large intestine, adherent, top dose 4 µM)”: the AUC is 0.743 and the pIC50 is 5.85.

As for “SNU-423 (liver, adherent, top dose 4 µM)”, the AUC came out at 0.801 and the pIC50 was 5.63.

“SNU-449 (liver, adherent, top dose 4 µM)”: the AUC is 0.819 and the pIC50 is 5.60.

In the case of “SNU-C1 (large intestine, suspension, top dose 4 µM)”, the AUC was found to be 0.626 and the pIC50 was 6.19.

Consider “SNU-C2B (large intestine, adherent, top dose 4 µM)”, for which the AUC was found to be 0.887 and the pIC50 is under 5.40.

In the case of “SNU-C5 (large intestine, adherent, top dose 4 µM)”, the AUC came to 0.859 and the pIC50 was 5.41.

In the case of “SR (lymphoid neoplasm, suspension, top dose 4 µM)”, the AUC was found to be 0.683 and the pIC50 is 6.12.

In the case of “ST486 (Burkitt lymphoma, suspension, top dose 4 µM)”, the AUC turned out to be 0.969 and the negative logarithm of the IC50 (pIC50) is under 5.40.

Regarding “STS-0421 (soft tissue, adherent, top dose 4 µM)”, the AUC was 0.645 and the pIC50 was 6.17.

As for “SU-DHL-4 (B-cell lymphoma, suspension, top dose 4 µM)”, the AUC turned out to be 0.987 and the pIC50 is under 5.40.

Turning to “SU-DHL-5 (B-cell lymphoma, suspension, top dose 4 µM)”, the AUC turned out to be 0.357 and the pIC50 is 6.95.
